This note sets out measurements from the supplement of paper PMC4967469.

A word on the IC50: it is the midpoint of a concentration-inhibition curve.

IC50 is the fitted dose that halves viability relative to control wells, and lower means more sensitive; a fit beyond the top or the lowest dose is shown as a bound at that dose. AUC is the area under the same curve over the 256-fold range up to the top dose, as a fraction; the more sensitive the line, the further below 1. An inferred top dose is not printed in the source and was worked back from the curve model.

Compound in one experiment: O=C1NC(=O)c2c1c(-c1ccccc1Cl)cc1[nH]c3ccc(O)cc3c21 [Wee1 inhibitor 681640]
Description: Viability of human cancer cell lines after 72 h of drug (GDSC screen). To be noted: top dose 2 µM; top dose inferred. As to the method:
(§1)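 Human cancer cell lines in 384-well plates, medium with 10% serum, drug for 72 h over a 256-fold dose range (nine 2-fold or five 4-fold steps up to the top dose). Adherent lines were fixed and stained with the nucleic acid dye Syto60, suspension lines read with resazurin; signal relative to control wells, capped at 0 and 100%. One two-parameter sigmoid per drug and line, fitted in a mixed model over all curves with the slope shared within a line.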
Take RC-K8 (B-cell lymphoma, suspension): the AUC came out at 0.989 and the IC50 is greater than 2 µM.
Take “SHP-77 (small cell lung carcinoma, semi-adherent)”: the AUC is 0.987 and the IC50 is greater than 2 µM.
SNU-C2B (large intestine, adherent): the AUC was determined as 0.926 and the IC50 was greater than 2 µM.
With SW982 (soft tissue, adherent), the AUC amounted to 0.96 and the concentration for half-maximal inhibition (IC50) is greater than 2 µM.
As for TK (B-cell lymphoma, suspension), the AUC is 0.965 and the IC50 is greater than 2 µM.
The like results for VAL (B-cell lymphoma, suspension) were, in that order, 0.938 and greater than 2 µM.

Compound in a further experiment: NC(=O)c1ccc(N(C(N)=O)c2c(F)cccc2F)nc1-c1ccc(F)cc1F [VX-702]
The description is as above. To be noted: top dose 2 µM; top dose inferred. As to the method: as §1
On to D-392MG (glioma, adherent), for which the AUC was found to be 0.977 and the IC50 is greater than 2 µM.
On to D-542MG (glioma, adherent), for which the AUC was 0.984 and the half-maximal inhibitory concentration (IC50) is greater than 2 µM.
Consider HCC2998 (large intestine, adherent), for which the AUC came out at 0.986 and the IC50 is greater than 2 µM.
The like results for “JURL-MK1 (chronic myeloid leukaemia, suspension)” were, in that order, 0.886 and greater than 2 µM.
Consider NB12 (neuroblastoma, adherent), for which the AUC came out at 0.978 and the IC50 is greater than 2 µM.
On the same counts, the results for “NCI-H1975 (lung adenocarcinoma, adherent)” are 0.983 and greater than 2 µM.
On to “NCI-H2227 (small cell lung carcinoma, semi-adherent)”, for which the AUC was 0.96 and the IC50 was greater than 2 µM.
RC-K8 (B-cell lymphoma, suspension): the AUC stood at 0.985 and the IC50 is greater than 2 µM.
Take “SHP-77 (small cell lung carcinoma, semi-adherent)”: the AUC was 0.991 and the IC50 was greater than 2 µM.
Turning to SNU-C2B (large intestine, adherent), the AUC turned out to be 0.968 and the IC50 is greater than 2 µM.
Regarding SW982 (soft tissue, adherent), the AUC turned out to be 0.974 and the IC50 was greater than 2 µM.
Take TK (B-cell lymphoma, suspension): the AUC stood at 0.985 and the IC50 was greater than 2 µM.
Take VAL (B-cell lymphoma, suspension): the AUC stood at 0.946 and the 50% inhibitory concentration (IC50) is greater than 2 µM.

Compound in the next experiment: Cc1ccc(-n2nc(C(C)(C)C)cc2NC(=O)Nc2ccc(OCCN3CCOCC3)c3ccccc23)cc1 [BIRB 0796]
Described as above. To be noted: top dose 10 µM; top dose inferred. As to the method: as §1
As for D-392MG (glioma, adherent), the AUC was 0.973 and the IC50 is greater than 10 µM.
As to D-542MG (glioma, adherent), the AUC was determined as 0.903 and the IC50 was greater than 10 µM.
Take “JURL-MK1 (chronic myeloid leukaemia, suspension)”: the AUC turned out to be 0.916 and the half-maximal inhibitory concentration (IC50) was greater than 10 µM.
In the case of NB12 (neuroblastoma, adherent), the AUC worked out at 0.967 and the IC50 is greater than 10 µM.
Regarding “NCI-H1975 (lung adenocarcinoma, adherent)”, the AUC was 0.915 and the IC50 was greater than 10 µM.
In the case of “NCI-H2227 (small cell lung carcinoma, semi-adherent)”, the AUC worked out at 0.982 and the IC50 was greater than 10 µM.
The like results for RC-K8 (B-cell lymphoma, suspension) were, in that order, 0.911 and greater than 10 µM.
On to “SHP-77 (small cell lung carcinoma, semi-adherent)”, for which the AUC was 0.983 and the concentration for half-maximal inhibition (IC50) was greater than 10 µM.
As to SNU-C2B (large intestine, adherent), the AUC is 0.976 and the IC50 was greater than 10 µM.
For SW982 (soft tissue, adherent), the AUC turned out to be 0.977 and the concentration for half-maximal inhibition (IC50) is greater than 10 µM.
In the case of TK (B-cell lymphoma, suspension), the AUC is 0.842 and the IC50 amounted to 6.11 µM.
In the case of VAL (B-cell lymphoma, suspension), the AUC amounted to 0.952 and the IC50 was greater than 10 µM.

Compound in a further experiment: COc1cc(N2CCN(C)CC2)ccc1Nc1ncc2c(n1)N(C)c1ccccc1C(=O)N2C [XMD8-85]
The description is as above. To be noted: top dose 8 µM; top dose inferred. As to the method:
as §1
In the case of BC-3 (B-cell lymphoma, suspension), the AUC came to 0.898 and the IC50 is greater than 8 µM.
Consider CAL-148 (breast, suspension), for which the AUC came out at 0.96 and the IC50 was greater than 8 µM.
D-392MG (glioma, adherent): the AUC worked out at 0.784 and the IC50 was 4.78 µM.
The like results for D-542MG (glioma, adherent) were, in that order, 0.665 and 1.61 µM.
The like results for ECC12 (stomach, suspension) were, in that order, 0.826 and 6.61 µM.
With EW-12 (Ewing sarcoma, suspension), the AUC is 0.977 and the IC50 is greater than 8 µM.
As for HCC1599 (breast, suspension), the AUC turned out to be 0.864 and the IC50 is greater than 8 µM.
With HCC2998 (large intestine, adherent), the AUC is 0.804 and the IC50 was determined as 3.87 µM.
With “HCC-33 (small cell lung carcinoma, adherent)”, the AUC was 0.981 and the IC50 is greater than 8 µM.
The like results for “HEL (acute myeloid leukaemia, semi-adherent)” were, in that order, 0.88 and 5.91 µM.
On to “JURL-MK1 (chronic myeloid leukaemia, suspension)”, for which the AUC stood at 0.964 and the IC50 is greater than 8 µM.
For KP-N-YS (neuroblastoma, adherent), the AUC is 0.915 and the IC50 is greater than 8 µM.
As to NB12 (neuroblastoma, adherent), the AUC worked out at 0.912 and the IC50 is greater than 8 µM.
“NCI-H128 (small cell lung carcinoma, suspension)”: the AUC amounted to 0.967 and the IC50 was greater than 8 µM.
For the cell line “NCI-H748 (small cell lung carcinoma, suspension)”, the AUC turned out to be 0.872 and the IC50 was greater than 8 µM.
Regarding “NCI-H2171 (small cell lung carcinoma, suspension)”, the AUC turned out to be 0.851 and the IC50 came to 4.91 µM.
“NCI-H2196 (small cell lung carcinoma, adherent)”: the AUC stood at 0.977 and the concentration for half-maximal inhibition (IC50) was greater than 8 µM.
“NCI-H2227 (small cell lung carcinoma, semi-adherent)”: the AUC was determined as 0.981 and the IC50 was greater than 8 µM.
For NK-92MI (lymphoid neoplasm, suspension), the AUC came to 0.923 and the IC50 is greater than 8 µM.
As to RC-K8 (B-cell lymphoma, suspension), the AUC was 0.977 and the IC50 was greater than 8 µM.
With SCC-3 (B-cell lymphoma, suspension), the AUC was found to be 0.938 and the IC50 amounted to 7.11 µM.
With “SIG-M5 (acute myeloid leukaemia, suspension)”, the AUC stood at 0.75 and the IC50 amounted to 2.08 µM.
With “SU-DHL-1 (anaplastic large cell lymphoma, suspension)”, the AUC is 0.982 and the IC50 is greater than 8 µM.
The like results for “TALL-1 (T-cell lymphoblastic leukaemia, suspension)” were, in that order, 0.944 and greater than 8 µM.
Take TE-441-T (rhabdomyosarcoma, adherent): the AUC stood at 0.963 and the IC50 was greater than 8 µM.
For TK (B-cell lymphoma, suspension), the AUC was found to be 0.943 and the IC50 was greater than 8 µM.
As to UACC-812 (breast, adherent), the AUC was determined as 0.991 and the half-inhibitory concentration (IC50) is greater than 8 µM.
For VAL (B-cell lymphoma, suspension), the AUC is 0.804 and the IC50 stood at 4 µM.
